Results on 43 compounds are retold here after ChEMBL document CHEMBL4888484, “Replenishing the malaria drug discovery pipeline: Screening and hit evaluation of the MMV Hit Generation Library 1 (HGL1) against asexual blood stage Plasmodium falciparum ,using a nano luciferase reporter read-out” (2022).

Molecules are shown by their SMILES. Hit rate of the full screen: of about 150,000 compounds, about 540 (0.36%) showed an effect of 50% or more. This is one part of the list.

The subject of this experiment is Plasmodium falciparum. In words: Primary screen in NF54 nanoGlo assay, in single point, at 2uM, 72h; a lower Z score goes with more inhibition. The conditions noted are these: timepoint 72 hour. The format is functional, Erythrocyte.
By % Inhibition is commonly meant the change of the read-out against control, counted positive when it falls. As to `O=C(NCCC(c1ccccc1)c1ccccc1)[C@@H]1COCCN1`, the “% Inhibition” value is -7% and the Z score is on record as 1.32.
The like results for `O=C(NCCn1c(=O)n(Cc2ccc(F)cc2)c2cccnc21)C1CCC1` were, in that order, 12% and -1.36.
For `Cc1cccc2c(C(=O)NC3CCN(c4nnnn4C)CC3)coc12`, the “% Inhibition” value is -7% and the Z score stood at 1.
With `CC[C@@H](CC#N)NC(=O)c1ncc(Br)cc1O`, the “% Inhibition” value is given as 6% and the Z score was -0.75.
The like results for `Cc1ccc(Br)cc1NC(=O)N[C@H]1CCN(C2CC2)C1` were, in that order, -8% and 1.11.
In the case of `C[C@@H](c1nc(C2CC2)no1)N1CC(=O)N(C2CC2)C1`, the “% Inhibition” value is -13% and the Z score is reported as 1.17.
For the compound `O=C(O)c1cccc2c(-c3ccccc3)c(-c3ccccc3)[nH]c12`, the “% Inhibition” value was -1% and the Z score stood at 0.21.
`CCc1cc2c3c([nH]c2cc1S(=O)(=O)Nc1ccc(C)cc1Cl)CCCC3=O`: the “% Inhibition” value was -14% and the Z score was determined as 2.66.
The matching figures for `COCCN(Cc1ccc(C)o1)c1ncc(Cl)cn1`: -8% and 0.84.
As for `CC(C)n1ccc(CC(=O)N2CCC[C@H](c3ccnn3C)C2)n1`, the “% Inhibition” value came to 1% and the Z score is reported as -0.12.
The matching figures for `CCNC(=O)c1ccc(-c2ccc(=O)[nH]c2)cc1`: -8% and 1.09.
For `c1cc(-c2cc(N3C[C@H]4CCC[C@@H]3C4)n3nccc3n2)ccn1`, the “% Inhibition” value is listed as -10% and the Z score turned out to be 1.34.
The like results for `CCN1CCN(C(=O)C2CCN(S(=O)(=O)c3cc(-c4noc(C5CCC5)n4)sc3C)CC2)CC1` were, in that order, -18% and 1.6.
Consider `COc1c(N)ncnc1N1CC[C@H](C2CCOCC2)C1`, for which the “% Inhibition” value is reported as -14% and the Z score is on record as 2.76.
The matching figures for `COC[C@@]12CCN(C(=O)Cc3ccccc3F)C[C@@H]1CN(S(C)(=O)=O)C2`: -15% and 1.81.
On to `CC(C)C[C@H](NC(=O)Nc1ccn(C)n1)C(=O)OC(C)C`, for which the “% Inhibition” value was 0% and the Z score worked out at 0.02.
As for `Cc1nc(NC(=O)COC2CCCCC2)sc1C`, the “% Inhibition” value is recorded as -3% and the Z score was 0.65.
The matching figures for `CCNC(=O)[C@@H]1CC[C@](C)(C(=O)Nc2onc(CC)c2C)C1(C)C`: -17% and 1.56.
The like results for `CCCCS(=O)(=O)N1CC[C@H](CNc2nccc(C(F)F)n2)C1` were, in that order, -1% and 0.19.
The matching figures for `CC(C)c1ccc(O[C@@H](C)CNC(=O)N2CCC(O)(C3CC3)CC2)cc1`: -1% and 0.08.
`FC(F)(F)c1ccc(N2CCC(c3nc4ccccc4[nH]3)CC2)nn1`: the “% Inhibition” value was -14% and the Z score turned out to be 1.37.
The like results for `CN(C(=O)c1cn(C)nc1C(F)F)C1CN(c2ccc3nncn3n2)C1` were, in that order, 2% and -0.19.
In the case of `O=C(c1cnccn1)N1CCc2ncc(C(F)(F)F)cc2C1`, the “% Inhibition” value is given as -5% and the Z score came to 0.97.
`CCN1CCN([C@H]2CCN(c3ccnc4c(F)cc(Cl)cc34)C2)CC1`: the “% Inhibition” value turned out to be 11% and the Z score was -1.82.
As to `O=c1c2ccccc2nnn1Cc1ccncc1`, the “% Inhibition” value was found to be 5% and the Z score is -0.66.
The matching figures for `CC(C)NC(=O)c1csc(COc2ccc3c(c2)[C@H](c2ccc(F)cc2)N(C(=O)c2ccco2)CC3)n1`: -6% and 0.99.
The like results for `COc1c(Br)cccc1CNC(=O)C#Cc1ccccc1` were, in that order, 5% and -0.58.
As to `CCC(CC)C1CC(NC(=O)c2cccnc2C)CCO1` (stereo unspecified), the “% Inhibition” value is recorded as -7% and the Z score was found to be 0.83.
In the case of `N#Cc1nccn1Cc1coc(-c2ccc(Br)cc2)n1`, the “% Inhibition” value turned out to be 1% and the Z score is reported as -0.14.
The like results for `Nc1ccc(OCc2n[nH]c(C3CC3)n2)cc1` were, in that order, -8% and 1.08.
The like results for `C=Cc1cc(OC)c(OCc2ccn(C(C)C)n2)c(OC)c1` were, in that order, -4% and 0.36.
The like results for `O=C(c1cccnc1Oc1ccc(F)cc1Br)N1CCCNCC1` were, in that order, -8% and 1.12.
Turning to `Cc1ccc(-n2ncc(Oc3ccc4c(c3)OCO4)c(Nc3ccc(C(=O)NCc4ccncc4)cc3)c2=O)cc1`, the “% Inhibition” value came out at 6% and the Z score was -0.81.
With `CCCc1cc(N2CCN(C(=O)Cc3ccc(F)cc3)CC2)nc2nnc(CC)n12`, the “% Inhibition” value is -15% and the Z score was found to be 1.92.
For the compound `O=C(N[C@H]1CC[C@@H]2CCC[C@@H]21)c1ncoc1C1CC1`, the “% Inhibition” value was -5% and the Z score is given as 0.75.
The matching figures for `CC1CN(c2ncnc3c2ncn3CC2(O)CCOCC2)CC(C2CC2)O1` (stereo unspecified): -12% and 1.56.
The matching figures for `COC1CCC(NC(=O)c2ccnc3c2ncn3C)CC1` (stereo unspecified): -10% and 1.85.
As for `C#CC(C)(C)N1CCN(C(=O)OC(C)(C)C)CC1`, the “% Inhibition” value came to 4% and the Z score was -0.79.
Take `CC1N[C@H](C(=O)O)Cc2c1[nH]c1ccccc21` (stereo partly specified): the “% Inhibition” value is listed as -11% and the Z score worked out at 1.01.
Take `O=C(c1cnccn1)N1CCC(Cc2n[nH]c(=O)n2-c2ccccc2F)CC1`: the “% Inhibition” value was 2% and the Z score is on record as -0.28.
As for `CN1C(=O)N[C@]2(CCN(c3ccccc3S(C)(=O)=O)C2)C1=O`, the “% Inhibition” value is given as -11% and the Z score came to 1.04.
As for `CCC(CC)(CO)CN(C)S(=O)(=O)c1cc(-c2ccn[nH]2)oc1C`, the “% Inhibition” value is on record as 3% and the Z score was -0.51.
Consider `Cc1nc(N)nc(C)c1C(=O)N[C@H](CO)Cc1ccc(O)cc1`, for which the “% Inhibition” value is given as -2% and the Z score turned out to be 0.15.
